From PubChem BioAssay AID651820 (National Center for Advancing Translational Sciences (NCATS), 2012)
The whole screen tested about 340,000 compounds, of which about 12,000 (3.5%) were called active. The inconclusive results got no clear call from the source; some entries with a clear call stand among them for comparison. Calls come from the whole dose curve; as a rule, active = well fitted inhibition curve with a large enough effect; inconclusive = small, poorly fitted or top-dose-only effect, or another doubt; inactive = no such curve, though single readings can be large or run the other way. Potencies of inconclusive entries are left out as doubtful fits.

Experiment: qHTS Assay for Inhibitors of Hepatitis C Virus (HCV)
Conditions: Huh7.5.1 HCVcc-Cre (HCVcc is cell-culture hepatitis C virus) infection, luciferase reporter, 44 h; series mostly up to 41.8 µM
Method in brief: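 Seed cells (1,000/well) for 4 h; treat with compound and infect with HCVcc-Cre, moi about 0.5. Incubate 44 h, then detect luciferase activity.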
Potency is the fitted concentration of half-maximal effect; tags give direction and shape of the fitted curve.

SMILES | Potency
CCOC(=O)C1CCN(C(=O)C2CC(=O)N(c3ccc4c(c3)OCCO4)C2)CC1 (stereo unspecified) | inactive
COc1ccc(-c2cc3nc(C)c(CCC(=O)N4CCN(c5ccccn5)CC4)c(C)n3n2)c(OC)c1 | inactive
COc1ccc2c(c1)-c1nc(/N=C/c3ccccc3O)sc1CC2 | active: 10 µM
Cc1ccc(NC(=O)CSc2nnc(CSc3nc(C)cc(C)n3)n2Cc2ccco2)c(C)c1 | active: 11.2 µM
COC(=O)C1=C(O)/C(=C\c2ccc(CNS(=O)(=O)c3ccc(Cl)cc3)o2)N=C1C | inactive
CC(C)(C)[C@H]1C=C(C(=O)Nc2ccccc2)O[C@@H](OCc2ccc(CO)cc2)C1 | inactive
Cc1ccc(F)cc1NC(=S)NCCc1ccccc1 | active: 10 µM
CCOc1ccc(NC(=O)CN(C)C(=O)CCNC(=O)c2ccc(Br)cc2)cc1OCC | inconclusive [inhibitor, single point]
CS(=O)(=O)c1ccc(-c2sc3ccccc3c2C#CCCO)cc1 | inconclusive [inhibitor, full curve]
NC(=O)CC(NC(=O)Cc1ccc(Br)cc1)c1ccc(N2CCN(c3ccccn3)CC2)c([N+](=O)[O-])c1 (stereo unspecified) | inconclusive [inhibitor, single point]
CCc1nc2ccc(C(=O)NCCc3ccco3)cc2nc1CC | inconclusive [inhibitor, partial curve, poor fit]
CCOC(=O)c1c(-c2ccccc2)csc1NC(=O)CSc1nc(C)cc(C)n1 | inconclusive [inhibitor, single point]
C=CCNC(=O)CSc1nc2ccccc2c(=O)n1CCc1ccc(OC)c(OC)c1 | inconclusive [inhibitor, partial curve]
Cc1ccc(C(=O)N2CCc3ccccc3C2)cc1S(=O)(=O)N1CCOCC1 | inactive
CC1CCc2nn(CC(=O)NCCN3CCOCC3)cc2C1 (stereo unspecified) | inactive
CCOC(=O)c1cn(Cc2ccc(C)cc2)nn1 | inactive
CC(=O)Oc1cc(C)cc2oc(=O)cc(-c3ccccc3)c12 | inactive
CS(=O)(=O)N1CCN(c2ccc(C(=O)NC3C4CC5CC(C4)CC3C5)cc2[N+](=O)[O-])CC1 (stereo unspecified) | active: 11.2 µM
CCN(CC)S(=O)(=O)c1cccc(C(=O)N/N=C/c2ccc([N+](=O)[O-])o2)c1 | inconclusive [inhibitor, single point]
Cc1ccc(S(=O)(=O)/N=C2/C=C(Sc3ncn[nH]3)C(=O)c3ccccc32)c(C)c1 | inconclusive [inhibitor, single point]
Cc1cccc(C(=O)OCC(=O)N(C)CC(=O)Nc2ccc(Cl)c(C(F)(F)F)c2)c1 | inconclusive [inhibitor, single point]
